Results on 14 molecules are retold here after publication PMC12136788.

B1: chr15:30400561:30403739:-|three_prime_utr|ENSG00000186399|control|control|control (ssRNA)
RNA: GGGAGUUCUACAGUCCGACGAUCAUAAGAAACCAAGUUAUGGGGUUAAUCUCCUACACAAUUCAUUUACUUCCUUUGAAUGUUAGACUCACUCAUGAUUAUUUGUGUUUCUAAUUUAUAGUUUAAGUUUAUUUGUAAAAAGUUCAACAGAGGAUUGAGCAUCA
B2: chr22:41245667:41245769:-|3pUTR|ENSG00000100401|msi1|total|mutant (ssRNA)
RNA: GGGAGUUCUACAGUCCGACGAUCCAAUGUCCGAGCUGCAUCUGGACGCUGCUCUUAAAGGACCUCCUGGGGCAGGGGAGCGGCCGGGUCUGGACUGGGCAGAUGCUGUAUGACCUCCCUGAGCACCCGUGACUGCCCCAUGCUCAACAGAGGAUUGAGCAUCA
B3: chr11:2397021:2397122:+|3pUTR|ENSG00000110651|msi1|FALSE|unique (ssRNA)
RNA: GGGAGUUCUACAGUCCGACGAUCUUGGGGUUUUGUUUUUGUUCUGAACUUUCCUGUUACCUUUUCAGGGCUGACGUCACAUGUAGGUGGCGUGUAUGAGUGGAGACGGGCCUGGGUCUUGGGGACUGGAGGGCAGGGGUCCUUCAACAGAGGAUUGAGCAUCA
B4: chr12:64147824:64147925:+|3pUTR|ENSG00000196935|unk|total|mutant (ssRNA)
RNA: GGGAGUUCUACAGUCCGACGAUCCAUCUCUGUGGUGUCUUUGUUCCUUUCCUUUCAUUCAUCACUACUUUCUCCUUGACAGCCCGCUUGCAUUAAAUAAUGUGAAACUUUUACCUUUAAAAUAUUUUUUUAUCUCACUUUCAUCAACAGAGGAUUGAGCAUCA
B5: ENSG00000070961:be:win_1301|CDS|ENSG00000070961|bound_else_gene|NA|bound_elsewhere_windowed (ssRNA)
RNA: GGGAGUUCUACAGUCCGACGAUCGUCUUCCACUUGCAGUCACGAUCUCACUGGCUUAUUCAGUCAAAAAAAUGAUGAAAGAUAAUAACUUAGUAAGGCAUCUGGAUGCUUGUGAAACCAUGGGAAAUGCUACAGCUAUUUGUUCAACAGAGGAUUGAGCAUCA
B6: chr12:76028505:76028606:-|3pUTR|ENSG00000139289|msi1|FALSE|unique (ssRNA)
RNA: GGGAGUUCUACAGUCCGACGAUCAAGUCUUGGUCAGUAUUUUUCCAGCAUUUAAAUUGAAACGGUCAGUAUUAGACCACUGCUAGGUUAUGUAGUCAAGAAAUAAAAAUAGAAUUACAUGCUACAGAUGUCUUUAUUCUCCUUCAACAGAGGAUUGAGCAUCA
B7: chr3:122768741:122768856:-|CDS|ENSG00000169087|unk|total|mutant (ssRNA)
RNA: GGGAGUUCUACAGUCCGACGAUCACAUGUAAUUACGCCGAAGCUACACUCGAAGAGUUUCUGACCUGGAACUGUGACCAGUCCCGUAUUUCUGGACCAUUCCGAGAUUAUGACCAUUCCAAGUUCUGGGCUUAUGCUGACUAUCAACAGAGGAUUGAGCAUCA
B8: chr1:54850123:54850236:-|3pUTR|ENSG00000116133|msi1_unk|total|mutant (ssRNA)
RNA: GGGAGUUCUACAGUCCGACGAUCGCCUCCAACCCUAAGCCACUGGGACGGUGGCCAGAGAUGCCAGCAGCCUCUGUCGCCCUCCGUCAUAUAACCAAAAUCCAGACCUUAUCCACAACCCGGGGCUUGGAAAGGAAGGUAUUUCAACAGAGGAUUGAGCAUCA
B9: ENSG00000112365:stop:overlap|stop_codon|ENSG00000112365|stop_codon|NA|stop_codon (ssRNA)
RNA: GGGAGUUCUACAGUCCGACGAUCUCUACACACUGGCAAGAAGCCUUUCUCCUGCCCUGAGUGUAACUUACAGUUUGCUCGCUUAGACAACUUGAAGGCUCACUUGAAAAUUCAUAGCAAGGAGAAGCAUGCUUCAGAUGCCAGCAACAGAGGAUUGAGCAUCA
B10: chr12:132722103:132722204:+|3pUTR|ENSG00000247077|msi1|total|mutant (ssRNA)
RNA: GGGAGUUCUACAGUCCGACGAUCGCUUCGCCUUUGACCUUCAUGCUGGUCUCGGCUGAGGUGACACGCCCGUGACAGCCCAACCGGGGGUUACCCUUAUUGAGUAAAAUACUUCAGAUUGACAGCUCAAUCUCCGUUUGCCUCCAACAGAGGAUUGAGCAUCA
B11: chr17:47658542:47658643:+|CDS|ENSG00000108424|unk|total|mutant (ssRNA)
RNA: GGGAGUUCUACAGUCCGACGAUCGAUUCUGACUGCCAUAAUCCAGGGGAUGAGGAAAGAAGAGCCCCGUAAUAAUGUGAAGCCCGCUGCUACGAAUGCACUCCUGAACUCAUUGGAGUUCACCAAAGCAAACUUUGAUAAAGACAACAGAGGAUUGAGCAUCA
B12: chr21:42850051:42850242:-|CDS|ENSG00000160193|control|control|control (ssRNA)
RNA: GGGAGUUCUACAGUCCGACGAUCCACGUUCGACAACGUGACCUCCUACCUGAAGAAGAAAGAGGAGAGACUGCAGCAGCAGCUAGAGAAGAAGCAGCGGCGCCGGAGUCCCCCGCCUGGGCCCGACGGGCAUGCCAAGAAGAUCAACAGAGGAUUGAGCAUCA
B13: chr10:62096657:62096758:+|3pUTR|ENSG00000150347|msi1|FALSE|unique (ssRNA)
RNA: GGGAGUUCUACAGUCCGACGAUCACCUCUAUGCUCUGUAAGGUGAUUAUUUGUAUAUAGCAACAUGGCCCAGUGAUAUUAUAUAGUUUCCCAAUGGAGAGGUUAUUGAGUAACCUUUGCAUUAGUUUAAACACUACCAGAAGACAACAGAGGAUUGAGCAUCA
B14: chr2:240467872:240467977:+|3pUTR|ENSG00000063660|msi1|total|mutant (ssRNA)
RNA: GGGAGUUCUACAGUCCGACGAUCCUCUGGCACAGUGAUGCCGGGCGCCAGGACAGCAGCACUCCCGCUGCACACAGACGGCCCCGGGGUGGCGCUCAGACCCCACCCUACGCUCAUCUCUGGAAGGGGCAGCCCUGAGUGGUCCAACAGAGGAUUGAGCAUCA

The list shows a part of the results.

The assay addresses MSI1 full-length (mouse, UniProt Q61474 1-362). In words: nsRBNS (natural sequence RNA bind-n-seq); RBNS binding buffer (assumed for nsRBNS): 25 mM Tris pH 7.5, 150 mM KCl, 3 mM MgCl2, 0.01% Triton X-100, 500 ug/ml BSA, 20 U/ml SUPERase-In, 4 C; UNK is unkempt and MSI1 is Musashi-1; names of the RNAs are library labels; protein concentration not given here; high values mean tight binding.
Chain of UniProt Q61474 (Q61474 whole entry): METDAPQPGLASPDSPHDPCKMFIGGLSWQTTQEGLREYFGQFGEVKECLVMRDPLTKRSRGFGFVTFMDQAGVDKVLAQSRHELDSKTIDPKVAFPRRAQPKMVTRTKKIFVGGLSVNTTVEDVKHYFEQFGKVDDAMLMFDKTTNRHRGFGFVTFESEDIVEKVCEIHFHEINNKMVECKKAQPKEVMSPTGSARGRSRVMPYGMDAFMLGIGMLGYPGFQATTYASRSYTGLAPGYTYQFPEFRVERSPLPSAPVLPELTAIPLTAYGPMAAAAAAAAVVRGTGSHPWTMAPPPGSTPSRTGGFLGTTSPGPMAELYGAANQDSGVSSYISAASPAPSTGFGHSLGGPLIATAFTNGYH
In turn, B1 showed a binding signal of 6.05 enrichment R. As for B2, the binding signal turned out to be 0.341 enrichment R.

B3 registered a binding signal of 1.88 enrichment R. As to B4, the binding signal was 2.32 enrichment R. To B5 belongs 0.636 enrichment R; to B6, 1.98 enrichment R; to B7, 0.431 enrichment R.

Molecule B8 gave a binding signal of 0.645 enrichment R. B9 registered a binding signal of 0.537 enrichment R. The molecule B10 registered a binding signal of 0.283 enrichment R.

In turn, B11 displayed a binding signal of 0.44 enrichment R. In turn, B12 displayed a binding signal of 0.402 enrichment R. Consider B13, for which the binding signal was 5.86 enrichment R. Molecule B14 gave a binding signal of 0.305 enrichment R.
